PMC6451091
This is one part of the list. For part of these data: At the low end of the ranking the order means little. For part of these data: Measured with an extract: partners may take part in the binding.

Assays:
Conditions in all cases: 20 mM HEPES pH 7.9, 100 mM NaCl, 1 mM DTT, 0.2 mg/mL BSA, 0.02% Triton X-100, 2% milk, 0.4 mg/mL salmon testes DNA; 1 h; temperature not stated; high values mean tight binding; double strand, one strand shown; sequences stand for … in GCCTAGCAC…GTGCTAGGTCTTGATTCGCTTGACGCTGCTG
PU.1 (IVT) = PU.1 (IVT) (UniProt P17947); test: protein-binding microarray (PBM)
[1] = target: PU.1 (endogenous, THP-1 nuclear extract) (UniProt P17947); test: nuclear extract protein-binding microarray (nextPBM)
[2] = target: T1, FLI1 (endogenous, THP-1 nuclear extract) (UniProt Q01543); test: as above
T1 sequence: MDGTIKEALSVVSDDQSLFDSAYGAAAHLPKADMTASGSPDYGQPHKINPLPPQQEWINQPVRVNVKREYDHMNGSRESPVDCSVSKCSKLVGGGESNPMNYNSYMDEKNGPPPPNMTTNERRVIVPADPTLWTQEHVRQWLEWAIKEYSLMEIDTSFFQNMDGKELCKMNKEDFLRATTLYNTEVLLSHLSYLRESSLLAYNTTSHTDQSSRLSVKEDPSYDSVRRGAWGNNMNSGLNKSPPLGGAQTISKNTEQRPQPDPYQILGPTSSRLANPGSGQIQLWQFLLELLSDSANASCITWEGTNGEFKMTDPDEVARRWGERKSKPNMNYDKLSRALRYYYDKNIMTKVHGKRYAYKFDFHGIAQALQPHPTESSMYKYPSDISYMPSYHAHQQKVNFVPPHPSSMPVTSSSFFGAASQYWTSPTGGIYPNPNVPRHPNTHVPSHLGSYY

Row | Sequence | binding signal (PU.1 (IVT)) [z-score] | binding signal [1] [z-score] | binding signal [2] [z-score]
1 | AAAGTGGGGAAGTGACAAAA | 3.36 | 3.06 | 1.19
2 | GGCTGGCAGAAGTACTGTGC | 0.226 | 0.389 | -0.483
3 | CATAAAGGGAAGTGGATGCT | 4.56 | 5.06 | 2.28
4 | AGGAAGTGGAAGTGGGGCAT | 2.38 | 2.73 | 5.08
5 | AAAAAAGGGAAGTGCCATAA | 7.55 | 7.07 | 3.06
6 | ATAGGGAGGAAGTGAAGATC | 3.37 | 3.33 | 2.61
7 | GAAAACAAGAAGTCCCATAG | 2.12 | 2.07 | 0.415
8 | AAAATGAGGAACTGGAACTA | 6.71 | 6.94 | 3.04
9 | TTGAGGAGGAAGTAGAAAGG | 3.94 | 4.7 | 2.35
10 | TTTATGAGGAAGTGTCATTT | 5.74 | 6.06 | 2.95
11 | GCTAAGAGGAAGTCCTCTGT | 5.07 | 5.28 | 2.54
12 | ACGAAAAGGAACTGTGCCCC | 0.94 | 0.985 | 0.486
13 | CAAAAGAGGAACTCTGAAAG | 5.64 | 6.45 | 1.93
14 | TCAAGGAGGAAGTGGTCAGT | 4.99 | 5.41 | 3.1
15 | GGAAAAAGGAAGTGAGGCAT | 5.39 | 5.71 | 3.16
16 | AGAAATGGGAAGTGCCATCC | 5.12 | 5.59 | 2.35
17 | TAAAGAGGGAAGTGAATATT | 5.18 | 4.79 | 2.24
18 | TTCATGAGGAAGTGCTAGCC | 4.77 | 5.18 | 2.14
19 | GGAAAGGGGAACTGGACCCA | 4.62 | 5.43 | 1.55
20 | GGTTTGGGGAAGTGGGCAGA | 4.75 | 4.99 | 1.76

Row | Sequence | binding signal (PU.1 (IVT)) [z-score] | binding signal [1] [z-score] | binding signal [2] [z-score]
21 | ACAATGAGGAAGTCAGCCAA | 5.28 | 6.37 | 2.07
22 | TCAAAGGGGAAGTGAGATTT | 5.86 | 6.5 | 2.96
23 | AAAAAAAGGAAGTGAAATAA | 6.66 | 6.43 | 2.98
24 | TGAAAGAGGAAGTGCAGCCA | 7.32 | 6.89 | 4.17
25 | GAAAAGAGGAAGTGAAATTG | 8.72 | 7.57 | 5.19
26 | TGGCAGAGGAAGTACTGTGA | 3.97 | 3.41 | 2.48
27 | GATATGGGGAAGTGGTAGTA | 5.17 | 5.61 | 1.94
28 | ATGGTGAGGAAGTGTGCATG | 2.66 | 2.85 | 1.74
29 | CAAATTAGGAACTGATGCGG | 2.14 | 2.06 | 0.517
30 | TGAAAGAGGAAGTCCCTTCT | 7.21 | 7.38 | 3.27
31 | GATAAGAGGAAGTCCTCTTT | 6.29 | 6.56 | 2.98
32 | TGGAAGAGGAAGTTGGTTTT | 7.15 | 6.75 | 3.62
33 | GCGAAGGGGAAGTCTTCCCT | 4.35 | 4.25 | 1.85
34 | GAGGAGAGGAAGTGGGTAAT | 3.75 | 3.91 | 3.1
35 | CAGCTGAGGAAGTGGGTGGG | 2.45 | 2.61 | 1.95
36 | GAAAACAGGAAGTACCATAG | 7.62 | 7.18 | 4.77
37 | GGGAAGAGGAAGTGGGGACG | 5.48 | 6.22 | 3.19
38 | CGAAAGGGGAACTGCTAAAC | 4.88 | 5.4 | 1.55
39 | TGTGAGAGGAAGTGCTAGTT | 4.42 | 4.51 | 2.91
40 | GAAATGGGGAAGTGCCAACT | 6.81 | 7.04 | 3.19

Row | Sequence | binding signal (PU.1 (IVT)) [z-score] | binding signal [1] [z-score] | binding signal [2] [z-score]
41 | AGAAAGAGGAACTTGGGCAG | 6.95 | 6.98 | 2.47
42 | GAAAAGGGGAAGTCAGACTA | 7.67 | 7.14 | 3.37
43 | GAAAAGAGGAAGTCAAACGA | 8.02 | 7.32 | 4.15
44 | CAAAAGAGGAACTGCTTTTT | 7.49 | 7.3 | 2.58
45 | AAAATGAGGAACTGATCAAA | 6.67 | 6.8 | 2.17
46 | GGGATGAGGAAGTGATGAGC | 6.14 | 6.22 | 2.6
47 | AGGAACAGGAAGTGGGTGCT | 5.84 | 6.22 | 5.27
48 | GGAAAGAGGAACTGGAGGAG | 6.01 | 6.47 | 2.7
49 | TATTTGAGGAAGTGTGAGAA | 5.91 | 6.14 | 2.47
50 | GCAAGGAGGAAGTGCCATGA | 4.49 | 5.27 | 2.65
51 | TGGATGAGGAACTGGGGCCC | 2.61 | 3.03 | 0.437
52 | AGAATGGGGAAGTGGAGAGA | 6.3 | 6.51 | 2.26
53 | CTGGAGAGGAAGTGGCAGCT | 3.81 | 3.81 | 2.69
54 | TGAATGAGGAAGTCTTACTA | 6.39 | 6.42 | 2.57
55 | ATTTTGAAGAACTACTGTGG | 1.17 | 1.2 | -0.409
56 | CAAAAAGGGAAGTGCATGCT | 6.52 | 6.79 | 2.8
57 | CAGAAGAGGAAGTGGTGAGG | 6.33 | 6.58 | 3.47
58 | GAAAACAGGAAGTCCCAAAG | 6.87 | 7.03 | 4.43
59 | AGAAGGAGGAAGTGGGGAGC | 5.26 | 5.88 | 2.78
60 | CTAAAGGGGAAGTGCCACAC | 5.65 | 6.55 | 2.54
